Structures are written as SMILES. The campaign covered roughly 5,400 compounds. About 190 (3.5%) showed an effect of 50% or more. Some of the results follow.

This assay concerns Vero-E6. In words: primary screen, phospholipidosis by LipidTOX staining; higher = more effect of the substance. Particulars: 10 µM. The method, boiled down:
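Drug-induced phospholipidosis detected with HCS LipidTOX Red reagent in Vero-E6 cells. Compounds tested at 10 μM, with amiodarone (10 μM) as positive control and DMSO (0.1 v/v %) as vehicle.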
Consider `O=C(c1ccc(Nc2nccc(-c3cc4ccccc4s3)n2)cc1)N1CCC(N2CCCC2)CC1`, for which the result_ITMP is given as -0.03%.
Take `C[n+]1cc2c3c(ccc2c2ccc4cc5c(cc4c21)OCO5)OCO3`: the result_ITMP is -11.7%.
Under `Nc1nc(=O)c2nc(Br)n([C@@H]3O[C@@H]4COP(=O)([O-])O[C@H]4[C@H]3O)c2[nH]1` stands -1.41%; under `C[C@@H](NC(=O)c1ncnc(N)c1Cl)c1ncc(C(=O)Nc2cc(C(F)(F)F)c(Cl)cn2)s1`, -1.48%.
The figure for `CN(C)C(=S)SC(=S)N(C)C` is -1.56%.
Under `CN(c1ccc(NC(=O)Nc2ccccc2)cc1)S(=O)(=O)c1cnn(-c2ccc(F)cc2)c1` stands 1.57%; under `Cc1cc(C)c(Nc2ccnc(Nc3ccc(C#N)cc3)n2)c(C)c1`, 32.3%; under `CN1C(=O)CC(c2ccccc2)C1=O` (stereo not shown), -6.4%.
As for `COc1ccccc1N1CCN(CCN(C(=O)C2CCCCC2)c2ccccn2)CC1`, the result_ITMP is 10.5%.
With `Nc1ccn([C@@H]2O[C@H](CO)[C@@H](O)C2(F)F)c(=O)n1`, the result_ITMP was -2.59%.
For the compound `O=C(NCCCN1CCC2(CC1)OCc1ccccc12)[C@H]1CCCN1Cc1ccccc1`, the result_ITMP was 35.1%.
On to `Fc1ccc(Cl)cc1-c1nc(Nc2ccncc2)c2nccnc2n1`, for which the result_ITMP is listed as -2.83%.
The figure for `CN(C)CCN(Cc1ccccc1)c1ccccn1` is 3.36%.
Under `CC1CNc2c(cccc2S(=O)(=O)N[C@@H](CCCNC(=N)N)C(=O)N2CC[C@@H](C)C[C@@H]2C(=O)O)C1` (stereo partly shown) stands -1.37%.
Take `Clc1cccc(N2CCNCC2)c1`: the result_ITMP is 4.14%.
Take `O=C(/C=C/c1ccccc1)NC(NC(=S)Nc1cccc2cccnc12)C(Cl)(Cl)Cl` (stereo not shown): the result_ITMP is recorded as -1.04%.
With `CCCN(CCC)C(=O)Cc1c(-c2ccc(Cl)cc2)nc2ccc(Cl)cn12`, the result_ITMP worked out at 0.29%.
The figure for `O=C1Nc2ccccc2C12OCC1(CO2)COC2(OC1)C(=O)Nc1ccccc12` (stereo not shown) is -0.48%.
Turning to `O=C(CC1CC(c2ccc(F)cc2F)=NO1)N1CCOCC1` (racemic), the result_ITMP was -0.02%.
The figure for `Nc1cccc2c1C(=O)N(C1CCC(=O)NC1=O)C2=O` (stereo not shown) is -6.7%.
Under `COc1cc(O)c(C(=O)c2ccccc2)cc1S(=O)(=O)O` stands -6.3%; under `Cc1ncc(COP(=O)([O-])O)c(CN(CCN(CC(=O)[O-])Cc2c(COP(=O)(O)O)cnc(C)c2[O-])CC(=O)[O-])c1[O-].[Mn+2]`, -10.5%; under `COc1ccc(C(C)(C)C)cc1CN[C@H]1C2CCN(CC2)[C@H]1C(c1ccccc1)c1ccccc1`, 1.79%.
For the compound `CC(C)(C)c1onc(O)c1CC(N)C(=O)O` (stereo not shown), the result_ITMP is given as -0.91%.
The figure for `COC(=O)C1=C(C)NC(C)=C(C(=O)NCCCN2CCC(c3ccccc3)(c3ccccc3)CC2)C1c1ccc([N+](=O)[O-])cc1` (stereo not shown) is 60.6%.
Regarding `COC1C(OC(=O)NC(=O)CCl)CCC2(CO2)C1C1(C)OC1CC=C(C)C` (stereo not shown), the result_ITMP is recorded as 11.3%.
On to `Oc1ccc(OC2CCCCO2)cc1` (stereo not shown), for which the result_ITMP worked out at 1.15%.
Take `O=C(NCC(=O)N1CC[C@H](N[C@H]2CC[C@@](O)(c3ccc(-c4ncccn4)cn3)CC2)C1)c1cccc(C(F)(F)F)c1`: the result_ITMP is given as -0.29%.
Regarding `NCCc1cc(O)c(O)cc1O`, the result_ITMP is -5.61%.
Under `N[C@@H](Cc1cc(I)c(Oc2cc(I)c(O)c(I)c2)c(I)c1)C(=O)O` stands -2.31%.
The figure for `CC1(C)CCC(C)(C)c2cc(NC(=O)c3ccc(C(=O)O)cc3)ccc21` is -5.64%.
For `COc1cc(C(=O)O)ccc1NC(=O)[C@@H]1N[C@@H](CC(C)(C)C)[C@](C#N)(c2ccc(Cl)cc2F)[C@H]1c1cccc(Cl)c1F`, the result_ITMP stood at 40.5%.
On to `CC(C(=O)O)c1ccc2c(c1)Cc1ccccc1-2` (stereo not shown), for which the result_ITMP is on record as -1.32%.
For the compound `Cc1ccc(CC2(O)CCN(CCOc3ccc(O)cc3)CC2)cc1`, the result_ITMP was -3.85%.
Under `O[C@@H]1[C@H](O)[C@@H](CCl)O[C@H]1n1cnc2c(NC3CC4CCC3C4)ncnc21` (mixture of isomers) stands -1.27%; under `OCC(O)COc1ccc(Cl)cc1` (stereo not shown), -3.26%.
On to `CC(C)=CCC[C@]1(C)C=Cc2c(O)c3c(c(CC=C(C)C)c2O1)O[C@]12C(=C[C@@H]4C[C@H]1C(C)(C)O[C@@]2(C/C=C(/C)C(=O)O)C4=O)C3=O`, for which the result_ITMP is listed as -0.51%.
For the compound `CN[C@@H](C)C(=O)N[C@H](C(=O)N1CCC[C@H]1C(=O)N[C@H]1c2ccccc2C[C@H]1OCC#CC#CCO[C@@H]1Cc2ccccc2[C@@H]1NC(=O)[C@@H]1CCCN1C(=O)[C@@H](NC(=O)[C@H](C)NC)C1CCCCC1)C1CCCCC1`, the result_ITMP is 0.22%.
The figure for `O=C(O)CSc1nnc(Br)n1-c1ccc(C2CC2)c2ccccc12` is 6.9%; for `C1CCN2C[C@@H]3C[C@H](CN4CCCC[C@@H]34)[C@H]2C1` it is 0.11%.
Regarding `NCCCCCC(O)(P(=O)([O-])O)P(=O)(O)O`, the result_ITMP is on record as -0.14%.
In the case of `OC(CN1CCC(Cc2ccc(F)cc2)CC1)c1ccc(Cl)cc1` (stereo not shown), the result_ITMP is reported as 0.68%.
Under `C[C@H]1O[C@@H](O[C@H]2CC[C@@]3(C)[C@H](CC[C@@H]4[C@@H]3C[C@@H](O)[C@]3(C)[C@@H](C5=CC(=O)OC5)CC[C@]43O)C2)C[C@H](O)[C@@H]1O[C@H]1C[C@H](O)[C@H](O[C@H]2C[C@H](O)[C@H](O[C@@H]3O[C@H](CO)[C@@H](O)[C@H](O)[C@H]3O)[C@@H](C)O2)[C@@H](C)O1` stands -9.7%; under `O=P(O)(NCCCl)NCCCl`, -1.62%.
On to `O=C(O)CCCCC(=O)O`, for which the result_ITMP is given as -6.15%.
Take `CCOC(=O)CCNc1cc(N2CCc3ccccc3CC2)nc(-c2ccccn2)n1`: the result_ITMP is -7%.
Turning to `Cn1c(COc2ccc(CC3SC(=O)NC3=O)cc2)nc2ccccc2c1=O` (stereo not shown), the result_ITMP was -0.39%.
The figure for `COc1cc2c(Nc3ccc(Cl)c(Cl)c3F)ncnc2cc1OC[C@@H]1C[C@@H]2CN(C)C[C@@H]2C1` is 55.5%; for `Cc1cc(=O)oc2c(C=O)c(O)ccc12` it is -9.22%.
The figure for `Cc1cc(C(=O)N2Cc3cnn(C)c3Nc3ccccc32)ccc1CNC(=O)N1CCC[C@H]1C(=S)N1CCCN(C)CC1` is -9.06%; for `CC(C)C(N)=O` it is -3.55%.
Under `CC(C)c1ccc(NC(=O)Cn2cnc3c2c(=O)n(C)c(=O)n3C)cc1` stands -4.51%; under `O=C(O)c1cc(O)c2c3nc4ccccc4oc-3cc(=O)c2n1`, -7.78%; under `C[C@H](NC(=O)/C(C#N)=C/c1cccc(Br)n1)c1ccccc1`, -3.24%.
Regarding `O=C(NCCN1CCN(c2ncccn2)CC1)C12CC3CC(CC(C3)C1)C2`, the result_ITMP was -4.43%.
The figure for `Cc1ccccc1NC(=N)Nc1ccccc1C` is 3.35%; for `CC[N+](CC)(CCCNC1=CC(=O)C(NCCC[N+](CC)(CC)Cc2ccccc2)=CC1=O)Cc1ccccc1` it is 1.27%.
The figure for `CCNC(=O)c1[nH]nc(-c2cc(Cl)c(O)cc2O)c1-c1ccc(OC)cc1` is -3.87%; for `CCC(CC)n1ccc2c(C(=O)NCc3c(C)cc(C)[nH]c3=O)cc(C#N)cc21` it is 0.08%.
Consider `NC[C@@H]1O[C@H](O[C@H]2[C@@H](O)[C@H](O[C@@H]3[C@@H](O)[C@H](N)C[C@H](N)[C@H]3O[C@H]3O[C@H](CO)[C@@H](O)[C@H](O)[C@H]3N)O[C@@H]2CO)[C@H](N)[C@@H](O)[C@@H]1O`, for which the result_ITMP is -1.27%.
For `Cc1c(C2CCN(CCc3ccccc3)CC2)noc1-c1ccc(Cl)cc1`, the result_ITMP is 48.8%.
The figure for `O=C/C=C/c1ccccc1` is -3.17%.
The figure for `C=C1/C(=C\C=C2/CCC[C@]3(C)[C@@H]([C@H](C)CC[C@@H](O)C(C)C)CC[C@@H]23)C[C@@H](O)C[C@@H]1O` is -2.08%.
Under `CCCC(CCC)C(N)=O` stands 0.56%; under `CCCCCOc1c(OC)ccc2cc(C(=O)NCc3ccc4c(c3)OCO4)c(=O)[nH]c12`, -2.62%; under `CC[C@@]1(O)C(=O)OCc2c1cc1n(c2=O)Cc2cc3ccccc3nc2-1`, -4.42%.
As for `CCN(CCNC(=O)Nc1ccccc1Br)c1cccc(C)c1`, the result_ITMP is given as -1.32%.
The figure for `CCNC(=O)Nc1ccc(-c2nc3c(c(N4CCOC[C@@H]4C)n2)CCN(C2COC2)C3)cc1` is 9.83%.
For `CC(OC(=O)OC1CCCCC1)OC(=O)C1=C(CSc2nnnn2CCN(C)C)CS[C@@H]2[C@H](NC(=O)Cc3csc(N)n3)C(=O)N12` (stereo partly shown), the result_ITMP was -7.73%.
Under `O=C(O)c1ccccc1NC(=O)C12CC3CC(CC(C3)C1)C2` stands -4.05%; under `CCCN(CCC)S(=O)(=O)c1ccc(C(=O)O)cc1`, -3.55%; under `CCOC(=O)[C@@H](C)Oc1ccc(Oc2nc3ccc(Cl)cc3o2)cc1`, -2.21%.
Under `CC(C)(C)NCC(O)COc1ccc(NC(=O)NC2CCCCC2)cc1` (stereo not shown) stands -4.12%.
Regarding `CC(C1=C(CCN(C)C)Cc2ccccc21)c1ccccn1` (stereo not shown), the result_ITMP is 10.3%.
Under `COc1ccncc1C(=O)NC(=O)Nc1ccc(-c2ccccc2)c(C(F)(F)F)c1` stands 0.32%; under `Nc1nccc(/C=C/c2ccccc2)n1`, -2.33%.
As for `O=C1NC(=O)c2c1c1c3ccccc3[nH]c1c1[nH]c3ccccc3c21`, the result_ITMP was -10.6%.
Consider `OC(c1ccccc1)(c1ccccc1)C12CC[N+](CCOCc3ccccc3)(CC1)CC2`, for which the result_ITMP is -0.61%.
The figure for `COc1cc2c3cc1Oc1cc(ccc1O)C[C@@H]1c4c(cc(OC)c(O)c4Oc4ccc(cc4)C[C@@H]3N(C)CC2)CC[N+]1(C)C` is -3.39%.
The figure for `CC(CCc1ccccc1)NC(C)C(O)c1ccc(O)cc1` (stereo not shown) is 18.6%; for `CS(=O)CCCCN=C=S` (stereo not shown) it is 4.51%; for `Cc1ncc(CO)c(CO)c1O` it is 2.41%.
Turning to `O=C(O)c1ccc(-c2c[nH]c3ncc(-c4ccccc4)cc23)cc1C1CCCC1`, the result_ITMP turned out to be 0.91%.
For the compound `CN1CCc2cc(Cl)c(O)cc2[C@@H](c2ccccc2)C1`, the result_ITMP was found to be 1.73%.
Take `C[C@]12C=CC(=O)C=C1CC[C@@H]1[C@@H]2CC[C@]2(C)OC(=O)CC[C@@H]12`: the result_ITMP is given as -2.34%.
